According to patent US11866502B2, “Anti-FGFR2 antibodies and methods of use thereof” (Regeneron Pharmaceuticals, Inc., priority 2020, dated 2024):

Assays:
hFGFR2b.mmh = molecular target: T1, hFGFR2b.mmh (Homo sapiens, UniProt P21802); test: Biacore surface plasmon resonance binding kinetics to hFGFR2b.mmh; conditions: 25° C.
T1 construct: myc-myc-hexahistidine (MMH) (C); made in house
Method: The Biacore sensor surface was derivatized by amine coupling with a monoclonal mouse anti-human Fc antibody (REGN2567 or Jackson Cat. […] Human FGFR2b and Human FGFR2c were prepared in-house expressing a C-terminal myc-myc-hexahistidine tag ([…] NO: 57; […] NO: 58). […] Association of hFGFR2b-MMH or hFGFR2c-MMH to each of the captured ADCs and monoclonal antibodies was monitored for 4 minutes. Subsequently, dissociation was monitored for 10 minutes in HBS-EP running buffer. Anti-human Fc surface was regenerated by a brief injection of 20 mM H3PO4. All binding kinetic experiments were performed at 25° C. […] All sensorgrams were double referenced by subtracting buffer injection sensorgram signal from the corresponding analyte sensorgram, thereby removing artifacts caused by dissociation of the antibody from the capture surface. […] [formula]

[1] = test system: SNU-16 human gastric cancer xenografts; test: SNU-16 gastric cancer xenograft growth (Example 7); assay type: in vivo, BALB/c SCID mice; conditions: Experiment B, subcutaneous; for Average % Decrease in Tumor Growth: vs isotype control group; for Average % Tumor Regression: vs tumor volume at start
Method: Briefly, 5×10^6 SNU-16 cells (ATCC) mixed with Matrigel (BD Biosciences) were implanted subcutaneously into the flank of male BALB/c SCID mice (6-8 weeks old, Jackson Laboratory). After tumors reached an average volume of 200-250 mm^3, mice were randomized into groups for treatment (n=5-6 mice per group for Experiment A and n=6-7 mice per group for Experiment B). […] Tumor volumes were measured twice per week over the course of the experiment. Averages (mean+/−standard deviation) of the tumor growth (change in tumor volume from the start of treatment through the end of the experiment) were calculated for each treatment group. The percent decrease of tumor growth was calculated from comparison to the isotype control group, and the percent regression of tumors at the end of the experiment was calculated from comparison to the tumor volume at the start of treatment.

NALM-6 cells = test: In vitro bystander assay, NALM-6 monoculture; assay type: cell-based; conditions: 5 days
Method: (§1) Five-fold serial dilutions of anti-FGFR2 ADCs or isotype control ADCs were prepared in dilution media (Optimem+0.1% BSA) and added to cells at final concentrations ranging from 20 nM to 0.051 pM (concentrations were corrected for the DAR and are dosed based on the effective payload concentration). Five-fold serial dilutions of free payloads were prepared in 100% DMSO, transferred to fresh dilution media, and then added to the cells at a final constant DMSO concentration of 0.2% and final payload concentrations ranging from 20 nM to 0.051 pM. […] Relative light units (RLUs) were measured on an Envision luminometer (Perkin Elmer) and cell viability was expressed as a percentage of the untreated (100% viable) cells. IC50 values were determined using a four-parameter logistic equation over a 10-point dose response curve (GraphPad Prism). The maximum % kill was also determined for each test article as follows: 100−minimum percent viability.
(§2) The ability of the anti-FGFR2 ADCs to induce cytotoxicity in FGFR2 negative cells through release of the payload in FGFR2 positive cells, i.e., bystander activity, was also assessed. […] Cytotoxicity was assessed as described previously for tumor cell lines except that three-fold serial dilutions were performed for all test articles with concentrations ranging from 100 nM to 15.2 pM, and cells were incubated with test articles for 5 days.

NCI-H716 cells = test: In vitro cytotoxicity assay (CellTiter-Glo 2.0), NCI-H716 cells; assay type: cell-based, human; conditions: 6 days; for IC50: NCI-H716 (low FGFR2b, high FGFR2c); for Max % Kill: NCI-H716, up to 20 nM
Method: (§3) To test the ability of anti-FGFR2 antibody drug conjugates (ADCs) disclosed herein to kill human cell lines, an in vitro cytotoxicity assay was performed. In vitro cytotoxicity of the anti-FGFR2 ADCs, isotype control ADCs, and reference free payloads were evaluated using the CellTiter-Glo 2.0 Assay Kit (Promega, Cat #G9243), in which the quantity of ATP present is used to determine the number of viable cells in culture. The payloads Maytansinoid 1A, Maytansinoid 1A* (a cell permeable equivalent of Maytansinoid 1A), and Tubulysin 1A were tested as free payloads, and the unconjugated antibodies, including comparator antibodies, were used as controls.
(§4) Five-fold serial dilutions of anti-FGFR2 ADCs or isotype control ADCs were prepared in dilution media (Optimem+0.1% BSA) and added to cells at final concentrations ranging from 20 nM to 0.051 pM (concentrations were corrected for the DAR and are dosed based on the effective payload concentration). Five-fold serial dilutions of free payloads were prepared in 100% DMSO, transferred to fresh dilution media, and then added to the cells at a final constant DMSO concentration of 0.2% and final payload concentrations ranging from 20 nM to 0.051 pM. The last well in each dilution series served as an untreated control and included media alone or media plus 0.2% DMSO and was plotted as a continuation of the 5-fold serial dilution. Six days later, 100 uL of CellTiter Glo 2.0 was added to each well, plates were mixed for 2 minutes on an orbital shaker, and plates were incubated at room temperature for 10 minutes. Relative light units (RLUs) were measured on an Envision luminometer (Perkin Elmer) and cell viability was expressed as a percentage of the untreated (100% viable) cells. IC50 values were determined using a four-parameter logistic equation over a 10-point dose response curve (GraphPad Prism). The maximum % kill was also determined for each test article as follows: 100−minimum percent viability.

IM-9 cells = test: In vitro cytotoxicity assay (CellTiter-Glo 2.0), IM-9 cells; assay type: cell-based, human; conditions: 6 days; for IC50: IM-9 (non-FGFR2 expressing); for Max % Kill: IM-9, up to 20 nM
Method: as §3, §4

SNU-16 + NALM-6 Cells = test: In vitro bystander assay, SNU-16 + NALM-6 coculture (1:1); assay type: cell-based; conditions: SNU-16 + NALM-6 1:1 coculture; 5 days
Method: as §1, §2

SNU-16 cells = test: In vitro cytotoxicity assay (CellTiter-Glo 2.0), SNU-16 cells; assay type: cell-based, human; conditions: 6 days
Method: as §3
as §1, with “concentration).” for “concentration). Five-fold serial dilutions of free payloads were prepared in 100% DMSO, transferred to fresh dilution media, and then added to the cells at a final constant DMSO concentration of 0.2% and final payload concentrations ranging from 20 nM to 0.051 pM.”

hFGFR2c.mmh = molecular target: T2, hFGFR2c.mmh (Homo sapiens, UniProt P21802); test: Biacore surface plasmon resonance binding kinetics to hFGFR2c.mmh; conditions: 25° C.
T2 construct: myc-myc-hexahistidine (MMH) (C); made in house
T2 sequence (P21802 with tags, fused parts or gaps): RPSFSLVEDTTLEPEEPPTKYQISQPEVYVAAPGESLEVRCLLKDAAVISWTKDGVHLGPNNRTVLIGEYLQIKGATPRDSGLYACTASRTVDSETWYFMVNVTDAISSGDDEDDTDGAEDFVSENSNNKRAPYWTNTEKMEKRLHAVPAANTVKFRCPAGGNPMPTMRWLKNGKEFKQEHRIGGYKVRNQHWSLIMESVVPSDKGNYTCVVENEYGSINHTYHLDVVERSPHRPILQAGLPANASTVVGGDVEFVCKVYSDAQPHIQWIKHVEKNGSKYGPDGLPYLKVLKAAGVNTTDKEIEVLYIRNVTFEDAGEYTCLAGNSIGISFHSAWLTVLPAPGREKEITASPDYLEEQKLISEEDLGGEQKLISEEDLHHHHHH
Method: The equilibrium dissociation constants (KD values) for hFGFR2b.mmh binding to anti-FGFR2 antibodies conjugated with Tubulysin (“tubulysin 1ALP”), Auristatin (“auristatin LP1”), or mc-VC-PAB-NMe-C3-May (“maytansinoid 1ALP”) were determined using a real-time surface plasmon resonance biosensor assay on a Biacore 2000 or a Biacore 4000 instrument. The Biacore sensor surface was derivatized by amine coupling with a monoclonal mouse anti-human Fc antibody (REGN2567 or Jackson Cat. No #109-005-098) to capture anti-FGFR2 ADC and parent unmodified antibodies expressed with human constant regions. Biacore binding studies were performed in HBS-EP running buffer (0.01M HEPES pH 7.4, 0.15M NaCl, 3 mM EDTA, 0.05% v/v Surfactant P20). […] Association of hFGFR2b-MMH or hFGFR2c-MMH to each of the captured ADCs and monoclonal antibodies was monitored for 4 minutes. Subsequently, dissociation was monitored for 10 minutes in HBS-EP running buffer. […] Kinetic association (ka) and dissociation (kd) rate constants were determined by fitting the real-time sensorgrams to a 1:1 binding model using Scrubber 2.0c curve fitting software. […] Binding dissociation equilibrium constants (KD) and dissociative half-lives (t½) were calculated from the kinetic rate constants as: […]

MFM-223 cells = test: In vitro cytotoxicity assay (CellTiter-Glo 2.0), MFM-223 cells; assay type: cell-based, human; conditions: 6 days
Method: as §3
as §1, with “concentration).” for “concentration). Five-fold serial dilutions of free payloads were prepared in 100% DMSO, transferred to fresh dilution media, and then added to the cells at a final constant DMSO concentration of 0.2% and final payload concentrations ranging from 20 nM to 0.051 pM.”

T1 sequence (P21802 with tags, fused parts or gaps isoform P21802-3): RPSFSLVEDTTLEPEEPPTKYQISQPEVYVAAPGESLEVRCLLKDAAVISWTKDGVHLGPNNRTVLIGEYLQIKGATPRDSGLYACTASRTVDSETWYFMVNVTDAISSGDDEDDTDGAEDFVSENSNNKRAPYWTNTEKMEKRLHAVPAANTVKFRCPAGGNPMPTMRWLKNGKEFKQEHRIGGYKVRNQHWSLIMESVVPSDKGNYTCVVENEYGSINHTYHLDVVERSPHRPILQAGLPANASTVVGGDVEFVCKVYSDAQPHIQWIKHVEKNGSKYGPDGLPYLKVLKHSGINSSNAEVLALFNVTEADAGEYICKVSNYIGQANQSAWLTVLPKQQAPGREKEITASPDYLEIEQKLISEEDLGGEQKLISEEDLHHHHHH

B1: mAb2-maytansinoid 1ALP: anti-FGFR2 mAb2 conjugated to maytansinoid 1ALP (mc-VC-PAB-NMe-C3-May) (conjugate)
heavy: QVQLVESGGGVVQPGKSLRLSCAASGFTFSNYGMHWVRQTPVKGLEWVTLIWYDGSNKYYTDSVKGRFTISRDNSKNTLYLQMNSLRSEDTAVYYCAREGNWNYGHAFDIWGQGTMVTVSSASTKGPSVFPLAPCSRSTSESTAALGCLVKDYFPEPVTVSWNSGALTSGVHTFPAVLQSSGLYSLSSVVTVPSSSLGTKTYTCNVDHKPSNTKVDKRV[human IgG4 Fc with S228P (EU numbers) omitted]
light: DIQMTQSPSTLSASVGDRVTITCRASQNIGNWLAWYQQKPGKAPNLLIYKASTLESGVPSRFSGSGSGTEFTLTISSLQPDDFATYNCQQYNSYSPTFGQGTKLEIKRTVAAPSVFIFPPSDEQLKSGTASVVCLLNNFYPREAKVQWKVDNALQSGNSQESVTEQDSKDSTYSLSSTLTLSKADYEKHKVYACEVTHQGLSSPVTKSFNRGEC
modifications: N-methyl
With B1 the “ka” value (hFGFR2b.mmh) was 68500 M⁻¹ s⁻¹, the “kd” value (hFGFR2b.mmh) was 0.000879 s⁻¹ and the “Tumor growth in mm3 from start of treatment (mean ± SD)” value (“Tumor growth in mm3 … (mean ± SD)” for short) ([1]; 1.0 mg/kg once) was 547.6 ± 292.3 mm3. The “Average % Decrease in Tumor Growth” value ([1]; 1.0 mg/kg once) was 63.9%, the “Tumor growth in mm3 … (mean ± SD)” value ([1]; 3.0 mg/kg once) was 164.1 ± 245.5 mm3 and the “Average % Decrease in Tumor Growth” value ([1]; 3.0 mg/kg once) was 89.2%. The “Tumor growth in mm3 … (mean ± SD)” value ([1]; 10 mg/kg once) was −35.1 ± 102.7 mm3, the “Average % Tumor Regression” value ([1]; 10 mg/kg once) was 18.2% and the “Tumor growth in mm3 … (mean ± SD)” value ([1]; 15 mg/kg once) was −5.8 ± 145.6 mm3. The “Average % Tumor Regression” value ([1]; 15 mg/kg once) was 8.4%, the “Max % Kill” value (NALM-6 cells) was 5.0% and the IC50 (NALM-6 cells; 100 nM to 15.2 pM) was greater than 100 nM. For the same molecule, the IC50 (NCI-H716 cells) was greater than 20 nM, the “Max % Kill” value (NCI-H716 cells) was 17.0% and the IC50 (IM-9 cells) was greater than 20 nM. For the same molecule, the “Max % Kill” value (IM-9 cells) was 9.5% and the IC50 (SNU-16 + NALM-6 Cells) was greater than 100 nM.

B2: mAb2: anti-FGFR2 antibody; HCVR/LCVR SEQ ID NO: 22/28, HC/LC 36/38; N297Q heavy chain SEQ ID NO: 53 (antibody)
heavy: QVQLVESGGGVVQPGKSLRLSCAASGFTFSNYGMHWVRQTPVKGLEWVTLIWYDGSNKYYTDSVKGRFTISRDNSKNTLYLQMNSLRSEDTAVYYCAREGNWNYGHAFDIWGQGTMVTVSSASTKGPSVFPLAPCSRSTSESTAALGCLVKDYFPEPVTVSWNSGALTSGVHTFPAVLQSSGLYSLSSVVTVPSSSLGTKTYTCNVDHKPSNTKVDKRV[human IgG4 Fc with S228P (EU numbers) omitted]
light: DIQMTQSPSTLSASVGDRVTITCRASQNIGNWLAWYQQKPGKAPNLLIYKASTLESGVPSRFSGSGSGTEFTLTISSLQPDDFATYNCQQYNSYSPTFGQGTKLEIKRTVAAPSVFIFPPSDEQLKSGTASVVCLLNNFYPREAKVQWKVDNALQSGNSQESVTEQDSKDSTYSLSSTLTLSKADYEKHKVYACEVTHQGLSSPVTKSFNRGEC
In the case of B2, the “ka” value (hFGFR2b.mmh) is reported as 50100 M⁻¹ s⁻¹, the “kd” value (hFGFR2b.mmh) is reported as 0.000447 s⁻¹ and the “Antigen Bound (RU)” value (hFGFR2b.mmh; antibody or ADC captured on anti-human Fc surface) is reported as 62.5 RU. For the same molecule, the IC50 (SNU-16 cells; SNU-16 (FGFR2b positive)) was greater than 20 nM, the “Max % Kill” value (SNU-16 cells; SNU-16, up to 20 nM) was 10.3% and the Kd (hFGFR2c.mmh) was greater than 30 nM. The “Antigen Bound (RU)” value (hFGFR2c.mmh; antibody captured on anti-human Fc surface) was −1.4 RU, the IC50 (NCI-H716 cells) was greater than 20 nM and the “Max % Kill” value (NCI-H716 cells) was 7.8%. For the same molecule, the IC50 (MFM-223 cells; MFM-223 (FGFR2b positive)) was greater than 20 nM, the “Max % Kill” value (MFM-223 cells; MFM-223, up to 20 nM) was 4.5% and the IC50 (IM-9 cells) was greater than 20 nM. For the same molecule, the “Max % Kill” value (IM-9 cells) was 6.4%.
